Assay results taken from the supplement of paper PMC4166925.
± gives the standard deviation of the averaged measurements. Over roughly 33,000 sequences, “E-score (dimensionless, -0.5 to 0.5)” has its median near -0.049; the highest 2% begin near 0.37. The list shows a part of the results.

System: T1, PmTbr T-box DNA-binding domain (GST fusion)
T1 sequence: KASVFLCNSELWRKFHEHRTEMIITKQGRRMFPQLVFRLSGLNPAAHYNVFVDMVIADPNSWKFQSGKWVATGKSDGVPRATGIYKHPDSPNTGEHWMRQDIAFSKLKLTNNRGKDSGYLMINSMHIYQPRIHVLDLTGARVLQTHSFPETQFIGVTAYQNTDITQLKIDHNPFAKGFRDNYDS
Assay: PBM E-score of 8-mer (E-score (dimensionless, -0.5 to 0.5)); Tbr is Tbrain of the sea star Patiria miniata (Pm) or the sea urchin Strongylocentrotus purpuratus (Sp); higher = stronger binding preference; most listed sequences are background and not binding sites
Details: the construct has about 5 more residues each side
Summary of the method: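 Each ungapped 8-mer received an enrichment E-score from the Universal PBM Analysis Suite, averaged over duplicate arrays. The proteins were Tbr T-box DNA-binding domains, covering the whole T-box plus about five flanking residues, fused to GST and expressed in BL21 E. coli at 20 °C before glutathione affinity purification. Universal Agilent oligonucleotide arrays were made double-stranded by primer extension and incubated with 200 nM protein in PBS (pH 7.5). The arrays were then scanned and quantified, and every 8-mer was scored from probe intensities.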

Sequence	PBM E-score of 8-mer
CCGGGTAC	-0.053 ± 0.0016
ATTAGTAG	0.0155 ± 0.063
GACTATCC	-0.158 ± 0.048
CTCCCATC	-0.228 ± 0.084
GCCACGGA	-0.125 ± 0.044
AACAACTT	0.103 ± 0.065
CAGAGACA	0.0652 ± 0.0091
ACACCTCT	0.48594 ± 0.00022
GAATTAGA	-0.223 ± 0.017
ACACTTTG	0.404 ± 0.014
ACAACTTC	0.107 ± 0.031
CGGCCTCA	-0.292 ± 0.062
TTATGAAA	0.00194 ± 0.088
AGCTCGTC	-0.235 ± 0.058
GCTGCAAA	0.00913 ± 0.022
CACTCCGG	0.246 ± 0.017
CAATCCTG	0.162 ± 0.015
ATGGCTGA	-0.243 ± 0.007
CGCCGGAC	-0.228 ± 0.082
AATCGAAG	-0.0883 ± 0.024
ATTTGCGG	-0.0635 ± 0.011
CCGATGCC	-0.264 ± 0.018
TAGCGAGA	0.212 ± 0.05
AACCCTCT	-0.212 ± 0.02

Sequence	PBM E-score of 8-mer
AGCCTAGC	-0.00521 ± 0.12
AGACCCGA	0.142 ± 0.031
CCGCGTCA	0.167 ± 0.034
TGCTACCA	0.0193 ± 0.032
CTACACTC	0.0444 ± 0.021
TAGCACGA	0.199 ± 0.039
ACCTCTTG	0.138 ± 0.027
AACCCGAA	-0.0671 ± 0.0056
AACGGCGT	0.0826 ± 0.036
CGACTTAG	0.156 ± 0.015
AGTACGAG	-0.162 ± 0.05
GCTAACTA	0.212 ± 0.07
ACTCTTCG	0.159 ± 0.033
GCCCTAAA	-0.147 ± 0.072
GCCCCTTA	-0.211 ± 0.061
ACTAACAT	-0.0831 ± 0.041
ACCAAACG	0.0138 ± 0.029
GAGTTTAC	0.0822 ± 0.021
ACTCCAGT	-0.095 ± 0.073
CTACTGTC	0.0804 ± 0.037
GAGGTCCC	-0.143 ± 0.013
ATATTACC	-0.168 ± 0.038
AATTATCG	0.106 ± 0.11
TGCGCACA	0.0366 ± 0.054

Sequence	PBM E-score of 8-mer
TACTAGTA	-0.163 ± 0.035
AGAAGAAA	-0.128 ± 0.046
AATATAGC	0.11 ± 0.069
CGCGGGGC	-0.0991 ± 0.018
GCTAGCAA	0.144 ± 0.015
GAGTTCGA	-0.163 ± 0.097
AATCGGGG	-0.0455 ± 0.027
ACATAGGA	-0.147 ± 0.015
GCTCTCGA	-0.0474 ± 0.016
CAGCCGCC	-0.0139 ± 0.06
ACTAGAGC	0.124 ± 0.015
CCGACTCA	-0.00942 ± 0.079
CAAGAGTA	-0.157 ± 0.024
AGTTTGTA	-0.0961 ± 0.054
GAGACCAC	-0.121 ± 0.052
CGATCGGA	-0.276 ± 0.042
ATACCAGC	-0.08466 ± 0.00076
AGGTTGAT	-0.00768 ± 0.03
CGATTACG	-0.15 ± 0.053
CGTATTCA	0.165 ± 0.051
ATATCGAC	0.0242 ± 0.0054
ATTTGAAG	-0.268 ± 0.0032
GACCTACC	-0.153 ± 0.0062
TATAGAGA	-0.26 ± 0.073

Sequence	PBM E-score of 8-mer
CGCGACTC	0.223 ± 0.0025
CGTGACAC	0.398 ± 0.02
AGCAGATG	-0.0396 ± 0.044
CCATTTCA	-0.175 ± 0.11
CTCATGTA	-0.0428 ± 0.0056
GCAACGAC	0.0956 ± 0.091
AATCGAAA	-0.0634 ± 0.045
AAAGCGGG	-0.188 ± 0.019
AAGTATTA	-0.0958 ± 0.063
GACCAAAC	-0.171 ± 0.071
TAGTCCGA	-0.0316 ± 0.0096
GCTCAGCA	-0.0718 ± 0.12
ACACCCGC	0.376 ± 0.011
ACCCCTAC	-0.000965 ± 0.077
AATAGGTG	0.428 ± 0.013
AGCCCTAT	-0.167 ± 0.019
CTTACACC	0.395 ± 0.013
AAAAACAT	-0.23 ± 0.04
CTTGGACA	0.00833 ± 0.024
CGTAGAAA	-0.228 ± 0.089
GAAACTTA	-0.0121 ± 0.078
CAGTCGCC	-0.193 ± 0.0073
